Assay results as given in the supplement of paper PMC4967469.
pIC50: −log10 of the molar value. A lower IC50 marks a more sensitive line; a fit beyond the top or the lowest dose is shown as a bound at that dose. AUC, from the same fit, is the share of area under the viability curve across the 256-fold dose range; the more sensitive the line, the further below 1. For part of these data: An inferred top dose was calculated from the reported fits.

What was measured:
Experiment in all cases: Viability of human cancer cell lines after 72 h of drug (GDSC screen)
Temsirolimus = compound: CO[C@H]1C[C@@H]2CC[C@@H](C)[C@@](O)(O2)C(=O)C(=O)N2CCCC[C@H]2C(=O)O[C@H]([C@H](C)C[C@@H]2CC[C@@H](OC(=O)C(C)(CO)CO)[C@H](OC)C2)CC(=O)[C@H](C)/C=C(\C)[C@@H](O)[C@@H](OC)C(=O)[C@H](C)C[C@H](C)/C=C/C=C/C=C/1C [Temsirolimus]; conditions: top dose 0.2 µM
Procedure: (§1)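 Human cancer cell lines in 384-well plates, medium with 10% serum, drug for 72 h over a 256-fold dose range (nine 2-fold or five 4-fold steps up to the top dose). Adherent lines were fixed and stained with the nucleic acid dye Syto60, suspension lines read with resazurin; signal relative to control wells, capped at 0 and 100%. One two-parameter sigmoid per drug and line, fitted in a mixed model over all curves with the slope shared within a line.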

SL 0101-1 = compound: CC(=O)O[C@@H]1[C@@H](OC(C)=O)[C@@H](O)[C@H](Oc2c(-c3ccc(O)cc3)oc3cc(O)cc(O)c3c2=O)O[C@H]1C [SL 0101-1]; conditions: top dose 10 µM; top dose inferred
Procedure: as §1

XMD15-27 = compound: C=CC(=O)Nc1ccc(C(=O)c2sc(Nc3ccc(N4CCN(C)CC4)cc3OC)nc2N)cc1 [XMD15-27]; conditions: top dose 10.24 µM; top dose inferred
Procedure: as §1

Cell Line	AUC (Temsirolimus)	pIC50 (Temsirolimus)	AUC (SL 0101-1)	pIC50 (SL 0101-1)	AUC (XMD15-27)	pIC50 (XMD15-27)
D-263MG (glioma, adherent)	0.75	7.11	0.963	< 5.00	0.983	< 4.99
NCI-H1155 (large cell lung carcinoma, suspension)	0.8	7.11	0.989	< 5.00	0.993	< 4.99
DBTRG-05MG (glioma, adherent)	0.718	7.23	0.984	< 5.00	0.968	< 4.99
H2373 (mesothelioma, adherent)	0.631	7.50	0.978	< 5.00	0.973	< 4.99
MRK-nu-1 (breast, suspension)	0.885	6.73	0.99	< 5.00	0.99	< 4.99
NCI-H1092 (small cell lung carcinoma, suspension)	0.98	< 6.70	0.99	< 5.00	0.99	< 4.99
OCI-AML5 (acute myeloid leukaemia, suspension)	0.96	< 6.70	0.989	< 5.00	0.97	< 4.99
SBC-3 (small cell lung carcinoma, adherent)	0.727	7.29	0.973	< 5.00	0.894	< 4.99
TE-1 (oesophagus, adherent)	0.886	< 6.70	0.975	< 5.00	0.982	< 4.99
HSC-2 (head and neck, adherent)	0.762	7.18	0.977	< 5.00	0.989	< 4.99
NCI-H2052 (mesothelioma, adherent)	0.96	< 6.70	0.982	< 5.00	0.958	< 4.99
NB14 (neuroblastoma, adherent)	0.828	6.94	0.978	< 5.00	0.989	< 4.99
COLO-684 (endometrium, suspension)	0.722	7.23	0.981	< 5.00	0.958	< 4.99
OV-17R (ovary, adherent)	0.933	< 6.70	0.981	< 5.00	0.981	< 4.99
MIA-PaCa-2 (pancreas, adherent)	0.655	7.45	0.977	< 5.00	0.985	< 4.99
KU-19-19 (bladder, adherent)	0.816	6.95	0.984	< 5.00	0.987	< 4.99
LC4-1 (lymphoblastic leukaemia, suspension)	0.93	< 6.70	0.982	< 5.00	0.884	< 4.99
NCI-H727 (lung carcinoid, adherent)	0.845	< 6.70	0.905	< 5.00	0.974	< 4.99

Cell Line	AUC (Temsirolimus)	pIC50 (Temsirolimus)	AUC (SL 0101-1)	pIC50 (SL 0101-1)	AUC (XMD15-27)	pIC50 (XMD15-27)
RCC-JF (kidney, adherent)	0.559	7.73	0.981	< 5.00	0.969	< 4.99
Mo-T (hairy cell leukaemia, suspension)	0.737	7.22	0.98	< 5.00	0.958	< 4.99
PC-14 (lung adenocarcinoma, adherent)	0.84	6.93	0.985	< 5.00	0.982	< 4.99
Caov-4 (ovary, adherent)	0.927	< 6.70	0.98	< 5.00	0.968	< 4.99
KYSE-220 (oesophagus, adherent)	0.973	< 6.70	0.98	< 5.00	0.977	< 4.99
OVCAR-5 (ovary, adherent)	0.717	7.23	0.982	< 5.00	0.982	< 4.99
TE-5 (oesophagus, adherent)	0.761	7.09	0.979	< 5.00	0.984	< 4.99
OVCAR-4 (ovary, adherent)	0.783	6.88	0.97	< 5.00	0.974	< 4.99
KARPAS-45 (lymphoblastic leukaemia, suspension)	0.877	6.84	0.982	< 5.00	0.953	< 4.99
OE19 (oesophagus, adherent)	0.912	< 6.70	0.985	< 5.00	0.985	< 4.99
WIL2-NS (lymphoid neoplasm, suspension)	0.94	< 6.70	0.992	< 5.00	0.973	< 4.99
DOV13 (ovary, adherent)	0.715	7.25	0.982	< 5.00	0.983	< 4.99
NCI-H2141 (small cell lung carcinoma, suspension)	0.985	< 6.70	0.99	< 5.00	0.989	< 4.99
KURAMOCHI (ovary, adherent)	0.765	7.07	0.983	< 5.00	0.984	< 4.99
NCI-H1436 (small cell lung carcinoma, suspension)	0.975	< 6.70	0.97	< 5.00	0.986	< 4.99
G-401 (kidney, adherent)	0.68	7.38	0.981	< 5.00	0.965	< 4.99
MFM-223 (breast, adherent)	0.799	7.02	0.989	< 5.00	0.983	< 4.99
OCUB-M (breast, adherent)	0.831	6.98	0.927	< 5.00	0.952	< 4.99
